The values below come from PMC9911399, “Two distinct binding modes provide the RNA-binding protein RbFox with extraordinary sequence specificity”.

T1: RBFOX1 RRM RbFoxmut (Fox-RRM*) (Homo sapiens, UniProt Q9NWB1 109-208, R118D;E147R;N151S;E152T)
T1 sequence: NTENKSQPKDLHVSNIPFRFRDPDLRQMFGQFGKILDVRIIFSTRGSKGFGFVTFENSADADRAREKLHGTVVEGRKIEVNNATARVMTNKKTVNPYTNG

B1: CGACGAA (DNA:RNA)
RNA: GGGAGACCGGAAUUCAGAUUGUCCCGACGAAUUAAAUCCCGUCGUAGCCACCA
DNA 1: CAATCTGAATTCCGGTCTCCC
DNA 2: TGGTGGCTACGACGGGATT
B2: CCCAGGA (DNA:RNA)
RNA: B1 RNA with G26C, A27C, C28A, A30G
DNA 1: CAATCTGAATTCCGGTCTCCC
DNA 2: TGGTGGCTACGACGGGATT
B3: UGUUGAC (DNA:RNA)
RNA: B1 RNA with C25U, A27U, C28U, A31C
DNA 1: CAATCTGAATTCCGGTCTCCC
DNA 2: TGGTGGCTACGACGGGATT
B4: CAGACCC (DNA:RNA)
RNA: B1 RNA with G26A, A27G, C28A, G29C, A30C, A31C
DNA 1: CAATCTGAATTCCGGTCTCCC
DNA 2: TGGTGGCTACGACGGGATT
B5: CCGAUCG (DNA:RNA)
RNA: B1 RNA with G26C, A27G, C28A, G29U, A30C, A31G
DNA 1: CAATCTGAATTCCGGTCTCCC
DNA 2: TGGTGGCTACGACGGGATT
B6: AAGGCAC (DNA:RNA)
RNA: B1 RNA with C25A, G26A, A27G, C28G, G29C, A31C
DNA 1: CAATCTGAATTCCGGTCTCCC
DNA 2: TGGTGGCTACGACGGGATT
B7: AACAACG (DNA:RNA)
RNA: GGGAGACCGGAAUUCAGAUUGUCCAACAACGUUAAAUCCCGUCGUAGCCACCA
DNA 1: CAATCTGAATTCCGGTCTCCC
DNA 2: TGGTGGCTACGACGGGATT
B8: AUAUGAG (DNA:RNA)
RNA: B1 RNA with C25A, G26U, C28U, A31G
DNA 1: CAATCTGAATTCCGGTCTCCC
DNA 2: TGGTGGCTACGACGGGATT
B9: GAGAUCC (DNA:RNA)
RNA: B7 RNA with A25G, C27G, A29U, G31C
DNA 1: CAATCTGAATTCCGGTCTCCC
DNA 2: TGGTGGCTACGACGGGATT
B10: AUAAGAC (DNA:RNA)
RNA: B1 RNA with C25A, G26U, C28A, A31C
DNA 1: CAATCTGAATTCCGGTCTCCC
DNA 2: TGGTGGCTACGACGGGATT
B11: ACGGUGA (DNA:RNA)
RNA: B7 RNA with A26C, C27G, A28G, A29U, C30G, G31A
DNA 1: CAATCTGAATTCCGGTCTCCC
DNA 2: TGGTGGCTACGACGGGATT
B12: GGGUCAA (DNA:RNA)
RNA: B1 RNA with C25G, A27G, C28U, G29C
DNA 1: CAATCTGAATTCCGGTCTCCC
DNA 2: TGGTGGCTACGACGGGATT
B13: AACCUAC (DNA:RNA)
RNA: B7 RNA with A28C, A29U, C30A, G31C
DNA 1: CAATCTGAATTCCGGTCTCCC
DNA 2: TGGTGGCTACGACGGGATT
B14: GGGCAAG (DNA:RNA)
RNA: B1 RNA with C25G, A27G, G29A, A31G
DNA 1: CAATCTGAATTCCGGTCTCCC
DNA 2: TGGTGGCTACGACGGGATT
B15: UUCCAAU (DNA:RNA)
RNA: B7 RNA with A25U, A26U, A28C, C30A, G31U
DNA 1: CAATCTGAATTCCGGTCTCCC
DNA 2: TGGTGGCTACGACGGGATT
B16: UCAACAA (DNA:RNA)
RNA: B1 RNA with C25U, G26C, C28A, G29C
DNA 1: CAATCTGAATTCCGGTCTCCC
DNA 2: TGGTGGCTACGACGGGATT
B17: AGUAACG (DNA:RNA)
RNA: B7 RNA with A26G, C27U
DNA 1: CAATCTGAATTCCGGTCTCCC
DNA 2: TGGTGGCTACGACGGGATT
B18: CGGAACA (DNA:RNA)
RNA: B7 RNA with A25C, A26G, C27G, G31A
DNA 1: CAATCTGAATTCCGGTCTCCC
DNA 2: TGGTGGCTACGACGGGATT
B19: GGCUCUC (DNA:RNA)
RNA: B7 RNA with A25G, A26G, A28U, A29C, C30U, G31C
DNA 1: CAATCTGAATTCCGGTCTCCC
DNA 2: TGGTGGCTACGACGGGATT
B20: CGUAACC (DNA:RNA)
RNA: B7 RNA with A25C, A26G, C27U, G31C
DNA 1: CAATCTGAATTCCGGTCTCCC
DNA 2: TGGTGGCTACGACGGGATT
B21: GCCAGCA (DNA:RNA)
RNA: B7 RNA with A25G, A26C, A29G, G31A
DNA 1: CAATCTGAATTCCGGTCTCCC
DNA 2: TGGTGGCTACGACGGGATT
B22: GGACAUC (DNA:RNA)
RNA: B1 RNA with C25G, G29A, A30U, A31C
DNA 1: CAATCTGAATTCCGGTCTCCC
DNA 2: TGGTGGCTACGACGGGATT
B23: CUGCGCC (DNA:RNA)
RNA: B1 RNA with G26U, A27G, A30C, A31C
DNA 1: CAATCTGAATTCCGGTCTCCC
DNA 2: TGGTGGCTACGACGGGATT
B24: AACUCCG (DNA:RNA)
RNA: B7 RNA with A28U, A29C
DNA 1: CAATCTGAATTCCGGTCTCCC
DNA 2: TGGTGGCTACGACGGGATT
B25: CUAGGGA (DNA:RNA)
RNA: B1 RNA with G26U, C28G, A30G
DNA 1: CAATCTGAATTCCGGTCTCCC
DNA 2: TGGTGGCTACGACGGGATT
B26: AGAACUU (DNA:RNA)
RNA: B7 RNA with A26G, C27A, A29C, C30U, G31U
DNA 1: CAATCTGAATTCCGGTCTCCC
DNA 2: TGGTGGCTACGACGGGATT
B27: UAUGGUC (DNA:RNA)
RNA: B7 RNA with A25U, C27U, A28G, A29G, C30U, G31C
DNA 1: CAATCTGAATTCCGGTCTCCC
DNA 2: TGGTGGCTACGACGGGATT
B28: UGUUACA (DNA:RNA)
RNA: B7 RNA with A25U, A26G, C27U, A28U, G31A
DNA 1: CAATCTGAATTCCGGTCTCCC
DNA 2: TGGTGGCTACGACGGGATT
B29: UACCCAA (DNA:RNA)
RNA: B1 RNA with C25U, G26A, A27C, G29C
DNA 1: CAATCTGAATTCCGGTCTCCC
DNA 2: TGGTGGCTACGACGGGATT
B30: UGUCCUU (DNA:RNA)
RNA: B1 RNA with C25U, A27U, G29C, A30U, A31U
DNA 1: CAATCTGAATTCCGGTCTCCC
DNA 2: TGGTGGCTACGACGGGATT
B31: UCUAUGU (DNA:RNA)
RNA: B7 RNA with A25U, A26C, C27U, A29U, C30G, G31U
DNA 1: CAATCTGAATTCCGGTCTCCC
DNA 2: TGGTGGCTACGACGGGATT

Changes are numbered by the printed parent chain; changes in the protein carry UniProt numbers. The list shows a part of the results.

The target of this assay is T1, RBFOX1 RRM RbFoxmut (Fox-RRM*). The assay is described as follows: EMSA; HiTS-Eq, 1 nM pool, 10 min; buffer printed only for the single-RNA assays: 10 mM Tris pH 7.5, 150 mM NaCl, 3.4 mM EDTA, 0.001% NP-40, 30 C. The note with it: tags: His6 N-terminal (pET28a); label: 5' 32P. The gist of the method:
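A pool of RNA with 7 randomized nucleotides, 5′-radiolabelled and with DNA-annealed flanks, was equilibrated at 1 nM for 10 min in 50 µL with purified RbFox RRM, wild type or mutant, across increasing protein concentrations. Free RNA was separated by 8% native PAGE, excised, reverse-transcribed, barcoded by PCR and sequenced. Relative association constants were obtained from read-count changes of each RNA species versus the control reaction and normalised to the cognate motif.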
(A gel shift assay detects complexes by their altered migration in electrophoresis.)
For the molecule B1, the binding signal is 0.0851 KA relative to UGCAUGU.
Turning to B2, the binding signal was 0.0754 KA relative to UGCAUGU.
With B3, the binding signal is 0.105 KA relative to UGCAUGU.
As for B4, the binding signal is 0.0621 KA relative to UGCAUGU.
Take B5: the binding signal was 0.11 KA relative to UGCAUGU.
On to B6, for which the binding signal was 0.0868 KA relative to UGCAUGU.
Consider B7, for which the binding signal is 0.0576 KA relative to UGCAUGU.
Take B8: the binding signal is 0.153 KA relative to UGCAUGU.
In the case of B9, the binding signal is 0.0646 KA relative to UGCAUGU.
Regarding B10, the binding signal was 0.0774 KA relative to UGCAUGU.
As to B11, the binding signal was 0.117 KA relative to UGCAUGU.
On to B12, for which the binding signal is 0.0941 KA relative to UGCAUGU.
B13: the binding signal is 0.0951 KA relative to UGCAUGU.
For the molecule B14, the binding signal was 0.0894 KA relative to UGCAUGU.
Regarding B15, the binding signal was 0.0569 KA relative to UGCAUGU.
For B16 the value was 0.0653 KA relative to UGCAUGU; for B17, 0.13 KA relative to UGCAUGU.
As to B18, the binding signal is 0.0809 KA relative to UGCAUGU.
For B19 the value was 0.0755 KA relative to UGCAUGU.
Take B20: the binding signal is 0.077 KA relative to UGCAUGU.
Consider B21, for which the binding signal is 0.112 KA relative to UGCAUGU.
Consider B22, for which the binding signal is 0.164 KA relative to UGCAUGU.
On to B23, for which the binding signal was 0.221 KA relative to UGCAUGU.
Consider B24, for which the binding signal was 0.0558 KA relative to UGCAUGU.
For B25, the binding signal is 0.0532 KA relative to UGCAUGU.
In the case of B26, the binding signal was 0.0698 KA relative to UGCAUGU.
The figure for B27 is 0.156 KA relative to UGCAUGU.
For B28 the value was 0.109 KA relative to UGCAUGU; for B29, 0.0796 KA relative to UGCAUGU.
With B30, the binding signal was 0.0794 KA relative to UGCAUGU.
For B31 the value was 0.161 KA relative to UGCAUGU.
